Assay results reported in the supplement of paper PMC7826260.
The list shows a part of the results. Cleavage of a single-stranded DNA pool by Rep nickase domains was read by sequencing (3 µM enzyme, 1 h, 37 °C); shown is the middle of each 90-letter strand. Uncut reads are compared with the no-enzyme pool on a log2 scale; uncut sequences lie near 0, cut ones below; no hit call is given. Reads are scaled to the total; where an enzyme cuts many sequences, the uncut ones exceed 0.

Tests used:
Assay in all cases: uncleaved DNA left, log2 of reads against the no-enzyme library (log2 ratio); higher = less cleavage (more negative = more Rep cleavage of the k-mer); sequences stand for … in CTCGTCCG…ACCGGAGA
[1] = system: T1, Rep nickase domain of Muscovy duck circovirus
T1 sequence (residues 1-111 of Rep, tag left off): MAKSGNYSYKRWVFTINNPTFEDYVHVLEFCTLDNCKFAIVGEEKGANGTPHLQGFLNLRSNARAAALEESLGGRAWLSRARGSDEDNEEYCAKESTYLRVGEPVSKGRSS
Experimental: (§1)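 A pool of 90-nt single-stranded DNAs with seven random bases just before the constant AC of the nick site (name = the seven bases) was cut by 3 µM recombinant His6-SUMO-tagged Rep nickase domain (300 nM DNA, 50 mM HEPES pH 8.0, 50 mM NaCl, 1 mM MnCl2, 1 h, 37 °C, three replicates). Uncut DNA was amplified and sequenced.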

[2] = system: T2, Rep nickase domain of banana bunchy top virus
T2 sequence (residues 1-94 of Rep, tag left off): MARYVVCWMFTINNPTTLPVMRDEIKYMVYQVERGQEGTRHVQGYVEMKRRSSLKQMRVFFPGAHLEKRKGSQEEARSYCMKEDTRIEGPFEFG
Experimental: as §1

[3] = system: T3, Rep nickase domain of cabbage leaf curl virus
T3 sequence (residues 1-116 of Rep, tag left off): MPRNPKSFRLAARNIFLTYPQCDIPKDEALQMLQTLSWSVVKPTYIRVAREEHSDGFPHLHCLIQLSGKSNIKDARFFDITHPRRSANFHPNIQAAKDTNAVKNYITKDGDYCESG
Experimental: as §1

[4] = system: T4, Rep nickase domain of chickpea chlorotic dwarf virus
T4 sequence (residues 1-124 of Rep, tag left off): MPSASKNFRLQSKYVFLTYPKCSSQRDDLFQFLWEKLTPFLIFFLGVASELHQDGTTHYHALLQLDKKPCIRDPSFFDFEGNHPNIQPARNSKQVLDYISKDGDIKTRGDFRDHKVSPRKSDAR
Experimental: as §1

[5] = system: T5, Rep nickase domain of faba bean necrotic yellows virus
T5 sequence (residues 1-98 of Rep, tag left off): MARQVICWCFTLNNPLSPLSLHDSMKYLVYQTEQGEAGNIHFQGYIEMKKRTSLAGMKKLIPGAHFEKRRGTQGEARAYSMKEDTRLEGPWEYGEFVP
Experimental: as §1

[6] = system: T6, Rep nickase domain of maize striate mosaic virus
T6 sequence (residues 1-117 of Rep, tag left off): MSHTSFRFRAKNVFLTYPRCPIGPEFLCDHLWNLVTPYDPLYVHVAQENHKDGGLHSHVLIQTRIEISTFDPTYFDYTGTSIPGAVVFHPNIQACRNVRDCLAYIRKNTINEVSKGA
Experimental: as §1

[7] = system: T7, Rep nickase domain of porcine circovirus 2
T7 sequence (residues 2-116 of Rep, tag left off): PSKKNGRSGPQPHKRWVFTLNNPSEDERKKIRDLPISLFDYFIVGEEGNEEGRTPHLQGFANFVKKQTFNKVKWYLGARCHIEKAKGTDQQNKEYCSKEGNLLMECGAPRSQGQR
Experimental: as §1

[8] = system: T8, Rep nickase domain of tomato golden mosaic virus
T8 sequence (residues 1-124 of Rep, tag left off): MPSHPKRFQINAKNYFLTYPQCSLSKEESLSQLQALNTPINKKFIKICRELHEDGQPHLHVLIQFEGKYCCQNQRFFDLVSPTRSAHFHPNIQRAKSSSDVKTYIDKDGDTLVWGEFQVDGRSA
Experimental: as §1

[9] = system: T9, Rep nickase domain of tomato yellow leaf curl virus
T9 sequence (residues 1-136 of Rep, tag left off): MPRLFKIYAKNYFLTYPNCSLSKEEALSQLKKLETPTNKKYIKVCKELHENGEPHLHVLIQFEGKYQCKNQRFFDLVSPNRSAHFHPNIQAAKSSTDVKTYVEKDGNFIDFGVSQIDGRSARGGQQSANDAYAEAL
Experimental: as §1

[10] = system: T10, Rep nickase domain of wheat dwarf virus
T10 sequence (residues 1-137 of Rep, tag left off): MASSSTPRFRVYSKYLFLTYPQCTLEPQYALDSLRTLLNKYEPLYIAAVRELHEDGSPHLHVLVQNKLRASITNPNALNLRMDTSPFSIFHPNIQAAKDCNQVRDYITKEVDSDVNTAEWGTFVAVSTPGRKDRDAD
Experimental: as §1

| Sequence | uncleaved DNA left (log2) [1] | uncleaved DNA left (log2) [2] | uncleaved DNA left (log2) [3] | uncleaved DNA left (log2) [4] | uncleaved DNA left (log2) [5] | uncleaved DNA left (log2) [6] | uncleaved DNA left (log2) [7] | uncleaved DNA left (log2) [8] | uncleaved DNA left (log2) [9] | uncleaved DNA left (log2) [10] |
| --- | --- | --- | --- | --- | --- | --- | --- | --- | --- | --- |
| TGTTTGT | -0.412 | -0.0834 | 0.131 | -0.288 | 0.0393 | -0.56 | -0.459 | -0.0306 | -0.0203 | 0.0676 |
| GACCGTC | -0.0484 | -0.122 | 0.0733 | 0.135 | -0.0521 | 0.0491 | 0.0359 | -0.0414 | -0.133 | -0.135 |
| GGTGTTA | 0.15 | 0.0577 | 0.418 | 0.795 | 0.072 | 1.86 | -0.0581 | 0.167 | 0.128 | 0.19 |
| TGATGTA | -0.116 | -0.0307 | 0.111 | -0.538 | 0.0458 | -0.113 | -0.166 | 0.0279 | 0.206 | 0.0373 |
| AGGCACG | -0.0489 | 0.0823 | -0.538 | -0.39 | 0.0244 | -0.855 | 0.0913 | 0.00433 | -0.0474 | -0.136 |
| GGACGTA | -0.0583 | 0.0723 | 0.753 | 1.82 | -0.0441 | 2.15 | 0.105 | -0.0387 | 0.031 | 0.124 |
| AGACGAG | 0.0279 | 0.0847 | 0.0936 | 0.454 | 0.0948 | -0.436 | 0.158 | 0.0194 | 0.0268 | -0.000606 |
| TCGCAAG | 0.0951 | 0.0847 | -0.189 | -0.127 | 0.167 | -0.783 | 0.202 | 0.151 | -0.0436 | 0.0819 |
| GAGAGTG | -0.00371 | -0.139 | -0.00247 | 0.466 | 0.0779 | 0.983 | 0.0465 | 0.0761 | -0.00827 | -0.00501 |
| AATCTCG | -0.0253 | -0.0157 | -1.04 | -0.562 | -0.0283 | -1.32 | 0.107 | -0.0598 | -0.0208 | -0.0785 |
| GACAGGC | -0.0339 | 0.0871 | 0.228 | 0.708 | -0.0122 | -0.119 | 0.148 | 0.037 | 0.0625 | 0.0287 |
| TACTTTC | -0.956 | -0.00618 | -0.269 | -1.48 | -0.00035 | -0.716 | -2.42 | -0.156 | 0.0183 | 0.0491 |
| GGCAGTT | 0.125 | 0.0612 | 0.695 | 1.38 | 0.0848 | 1.96 | 0.112 | -0.0529 | -0.0225 | 0.157 |
| TATTAAA | -2.37 | -0.215 | -0.019 | -0.832 | 0.0287 | -0.432 | -0.783 | 0.0983 | -0.00638 | 0.112 |
| GGCGTAG | -0.0414 | -0.0553 | 0.111 | 0.56 | -0.0378 | 1.27 | 0.0867 | 0.0515 | -0.0536 | -0.112 |
| GTAGTAT | -0.000217 | 0.0306 | 0.38 | 0.776 | -0.0506 | 1.87 | 0.0717 | 0.185 | 0.154 | 0.0909 |
| AGAGCCA | 0.146 | 0.133 | 0.47 | 0.64 | 0.142 | 1.6 | 0.0604 | 0.102 | 0.104 | -0.00526 |
| TGGCCAG | -0.0256 | 0.00894 | -0.213 | 0.127 | -0.0653 | -0.451 | 0.101 | -0.0813 | -0.011 | 0.12 |
| CGGTGTG | -0.0745 | -0.302 | -0.623 | -0.315 | 0.0123 | -0.754 | -0.103 | -0.109 | -0.0497 | -0.354 |
| TGCGAGC | 0.019 | 0.0329 | 0.113 | 0.493 | 0.126 | 0.141 | 0.217 | 0.15 | 0.0603 | 0.137 |
| CCAACGC | -0.0263 | -0.166 | -0.209 | -0.93 | 0.0132 | -1 | 0.11 | -0.133 | -0.109 | -0.14 |
| TATGTCG | -0.0126 | -0.0942 | -0.891 | 0.186 | 0.0772 | -1.03 | 0.00918 | -0.152 | -0.0391 | -0.136 |
| AAGACGG | 0.0473 | 0.0565 | 0.107 | 0.739 | 0.0999 | 1.61 | 0.223 | 0.15 | -0.147 | 0.0467 |
| TGTCGGA | 0.154 | -0.00641 | 0.146 | 0.389 | 0.0143 | 0.00635 | 0.147 | 0.174 | 0.00317 | 0.0639 |
| GCTACCT | 0.0471 | 0.0132 | 0.156 | -1.11 | -0.0327 | 0.419 | -0.212 | 0.02 | 0.128 | 0.0915 |
| ACTAATC | 0.0712 | -0.0187 | -0.0703 | -0.11 | 0.0591 | -0.711 | 0.194 | 0.0952 | -0.0514 | 0.0835 |
| TGGCGTG | -0.0914 | -0.0976 | -0.238 | -0.163 | -0.0418 | -0.461 | 0.0956 | -0.0818 | -0.145 | -0.0991 |
| CTTGTTT | -0.079 | -0.206 | -0.113 | -2.05 | -0.0131 | -0.846 | -1.34 | -0.125 | -0.000212 | -0.169 |
| ACACCGT | -0.0437 | -0.173 | -0.503 | -0.649 | 0.0355 | -0.979 | 0.0792 | -0.0333 | -0.241 | -0.144 |
| AGTACCC | -0.0263 | 0.0902 | 0.509 | 1.25 | 0.0371 | 1.72 | -0.102 | -0.0552 | -0.00227 | 0.163 |
